According to ChEMBL document CHEMBL1201862, “PubChem BioAssay data set” (2004):

What follows are molecules tested on NCI-H322M (assay: inhibition of tumour cell growth, NCI panel, 48 h).

Structure (SMILES) | GI50
COc1cc(O)c(C(=O)/C=C/c2ccc(O)cc2)cc1Oc1ccc(/C=C/C(=O)c2ccc(O)cc2O)cc1 [RHUSCHALCONE III] | inactive: 10 µM
COc1cc(S(=O)(=O)Nc2ccc(-c3csc(/N=C\C=C\c4ccccc4)n3)cc2)ccc1Cl | inactive: > 100 µM
Cc1ccc(S(=O)(=O)Oc2coc(CO)cc2=O)cc1 | inactive: 17 µM
CC(=O)NC(Cc1ccc(OP(=O)(OCc2ccc([N+](=O)[O-])o2)N(C)CCCCCl)cc1)C(=O)NC(C)c1ccc(OCC2CCCCC2)c(C(N)=O)c1 (stereo unspecified) | inactive: 4.29 µM
CCN(CC)CCn1ncc2c3c(=O)c4cccnc4n(CCN(CC)CC)c3ccc21 | inactive: 6.52 µM
CC(=O)OCc1cc2ccccc2nc1C(Br)(Br)Br | inactive: 12.8 µM
COC(=O)C(C#N)=C1c2ccccc2Oc2ccccc21 | inactive: > 100 µM
CN(C)C(=S)Nc1nnc(NC23CC4CC(CC(C4)C2)C3)s1.[O-][Cl+3]([O-])([O-])O | inactive: 33 µM
O=c1[nH]nc(-c2ccccc2)n1O | inactive: > 100 µM
COc1ccc(/C(C#N)=C/c2ccc(OC)c(OC)c2)cc1 | inactive: > 100 µM
[N-]=[N+]=CC(=O)C1CCCN1C(=O)c1ccccc1 (stereo unspecified) | inactive: > 10 µM
CC(C)C1=C(Cc2ccccc2)C(=O)O/C1=C\c1ccc(O)c(Cl)c1 | inactive: 16.9 µM
O=C1C2=Cc3ccccc3OC2(O)Oc2cc(O)ccc21 (stereo unspecified) | inactive: > 100 µM
CN(C)c1ccc(/C=N/c2ccc(-c3nc4ccccc4s3)cc2)cc1 | inactive: 41.8 µM
O=C1CCCCC[C@]12SC[C@H]1CON=C12 | inactive: 52.4 µM
CNc1ccccc1-c1nc2ccccc2c(=O)o1 | inactive: > 100 µM
C=C(Nc1ccc(OC)cc1OC)C(=O)Cc1cccc[n+]1[O-] | inactive: > 100 µM
CC1CC[C@@]2(OC1)OC1C[C@H]3[C@@H]4C/C(=N\N(C)C)[C@@]5(O)CC(O)CC[C@]5(C)[C@H]4CC[C@]3(C)C1[C@@H]2C (stereo partly specified) | inactive: 29.8 µM

Structure (SMILES) | GI50
Cc1ccc(C(CCO)CCO)nc1 | inactive: > 100 µM
Cc1cccc(C)c1N1C(=O)C(=O)C(c2nc3ccccc3s2)/C(=N/NC(=O)NN)C1=O (stereo unspecified) | inactive: > 100 µM
O=C1c2ccccc2C(=O)c2c1ccc(O)c2O [ATHRAQUINONES A] | inactive: 49.9 µM
CC(=O)NC1C(OCc2ccccc2)OC(CO)C(O)C1OC(C)C(=O)NC(C(=O)NC(CCC(=O)NCCCC(=O)Nc1ccc2c(c1)CN1C(=O)c3ccccc3C1=N2)C(N)=O)C(C)C (stereo unspecified) | inactive: > 100 µM
Nc1c(Cl)ncnc1NCCCNc1ncnc(Cl)c1N | inactive: > 100 µM
CCc1nc(N)nc(N)c1-c1ccc([N+](=O)[O-])c(Cl)c1 | inactive: 7.62 µM
O=C(CSc1nnc(Cc2ccccc2)o1)Nc1ccccc1 | inactive: > 100 µM
CC(=O)Nc1ccc(/C=C2/NC(=S)N(/C=C3\C(=O)Oc4ccccc4C3=O)C2=O)cc1 | inactive: 79.4 µM
CCOc1cc(CC[N+](C)(C)C)c2c(ccc3ccc(OC)c(OC)c32)c1OC | inactive: > 100 µM
CC(=O)Nc1ccc(C(O)/C(=N/N)c2nc3ccc(Cl)cc3nc2O)cc1 (stereo unspecified) | inactive: > 100 µM
O=C1C=CC2(O)OCC3C=C4O[C@@H]5OC6(CCCCC6)O[C@@H]5C4[C@@H]2[C@@H]13 (stereo partly specified) | inactive: > 100 µM
COc1ccc(N2CCN(c3ccc4c(c3)NCC(=O)N4)CC2)cc1 | inactive: > 100 µM
OCC1OC(c2scc3c(=S)[nH]cnc23)C(O)C1O (stereo unspecified) | inactive: 23.2 µM
Cc1nnc(N)nc1/C=C/c1c(O)ccc2ccccc12 | inactive: 28.3 µM
C=C(Br)C(C)(Br)CCC(Br)C(C)(C)Cl (stereo unspecified) | inactive: 16.2 µM
OCC1CCCCCCCCCCC12SCCCS2 (stereo unspecified) | inactive: > 100 µM
CS(=O)(=O)c1c(N)c2nc(Cl)cn2c2nc3ccccc3nc12 | inactive: > 100 µM
O=C1NC(=O)[C@@H](OCC2CCCCC2)[C@@H]2OCC3OC(C(O)C3O)C12 (stereo partly specified) | inactive: > 100 µM

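Growth conditions: 96-well plates. Treatment: test compound, 48 hours, 5 concentrations. Analysis: linear interpolation between bracketing concentrations; unreached endpoints set to highest concentration. GI50 = concentration required for 50% inhibition of growth.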 Calls of active or inactive are those of the source. No stated cut-off is given here; in the data, active = GI50 up to about 1.1 µM and inactive = higher.
